Each structure is given as a SMILES string. The list shows a part of the results.

The first assay has as its system HepG2. Description: cytotoxicity call (relative viability < 0.9). The note with it: 10 µM.
As to `C[C@@H]1CN([C@H](C)CO)C(=O)Cc2cc(NS(C)(=O)=O)ccc2O[C@@H]1CN(C)Cc1ccc(C(=O)O)cc1`, the cytotoxicity call was “inactive”.

As to `C[C@@H]1CN([C@@H](C)CO)C(=O)c2c(c3ccccc3n2C)-c2ccccc2CO[C@@H]1CN(C)Cc1ccc(Cl)c(Cl)c1`, the cytotoxicity call was “inactive”.

For `Cc1noc(C)c1NC(=O)Nc1ccc2c(c1)C(=O)N([C@H](C)CO)C[C@H](C)[C@H](CN(C)Cc1ccc(C(F)(F)F)cc1)OCCCC[C@@H](C)O2`, the cytotoxicity call is “inactive”.

As to `C[C@@H]1CN([C@@H](C)CO)C(=O)Cc2cc(NC(=O)Cc3cn(C)c4ccccc34)ccc2O[C@@H]1CN(C)C(=O)Nc1cccc2ccccc12`, the cytotoxicity call was “inactive”.

`O=C(C[C@@H]1CC[C@H](NS(=O)(=O)c2ccc(F)cc2)[C@@H](CO)O1)NCc1ccc(Cl)c(Cl)c1`: the cytotoxicity call is “inactive”.

For the molecule `C[C@@H]1CCCCO[C@@H](CN(C)Cc2ccc(Cl)c(Cl)c2)[C@@H](C)CN([C@H](C)CO)C(=O)c2cc(NC(=O)Nc3ccc(F)cc3)ccc2O1`, the cytotoxicity call was “inactive”.

With `COc1ccccc1C#Cc1cnc2c(c1)C(=O)N([C@H](C)CO)C[C@H](C)[C@@H](CN(C)C(=O)CC1CC1)O2`, the cytotoxicity call was “inactive”.

With `Cc1ccc(S(=O)(=O)Nc2cccc3c2O[C@@H](CN(C)S(=O)(=O)c2ccccc2)[C@@H](C)CN([C@H](C)CO)C3=O)cc1`, the cytotoxicity call was “inactive”.

Consider `C[C@@H]1CN([C@H](C)CO)C(=O)c2cc(-c3cccnc3)cnc2O[C@H]1CN(C)Cc1ccc(Oc2ccccc2)cc1`, for which the cytotoxicity call is “inactive”.

Turning to `COc1ccc(CN(C)C[C@@H]2OCCCC[C@@H](C)Oc3ccc(NC(=O)c4ccccc4)cc3C(=O)N([C@H](C)CO)C[C@@H]2C)cc1`, the cytotoxicity call is “inactive”.

Turning to `C[C@H]1CN([C@@H](C)CO)C(=O)c2cc(NS(C)(=O)=O)ccc2O[C@H]1CN(C)Cc1ccc(C(=O)O)cc1`, the cytotoxicity call is “inactive”.

As to `Cc1noc(C)c1NC(=O)N(C)C[C@@H]1OCCCC[C@@H](C)Oc2ccc(NC(=O)Nc3ccccc3)cc2C(=O)N([C@@H](C)CO)C[C@@H]1C`, the cytotoxicity call is “inactive”.

Consider `COc1ccc(NC(=O)Nc2cccc3c2O[C@H](CN(C)Cc2ccc(C(F)(F)F)cc2)[C@@H](C)CN([C@H](C)CO)C3=O)cc1`, for which the cytotoxicity call is “inactive”.

On to `COc1ccc(/C=C/CN(C/C=C/c2ccc(OC)cc2)CCCCNS(=O)(=O)c2cccc3cnccc23)cc1`, for which the cytotoxicity call is “active”.

`C[C@@H]1CN([C@@H](C)CO)C(=O)c2cc(NC(=O)Nc3ccccc3)ccc2O[C@H]1CN(C)C(=O)Nc1cccc2ccccc12`: the cytotoxicity call is “inactive”.

As to `C[C@H](CO)N1C[C@H](C)[C@H](CN(C)C(=O)Nc2ccc3c(c2)OCO3)Oc2ncc(C#CC(C)(C)O)cc2C1=O`, the cytotoxicity call was “inactive”.

Turning to `C[C@@H]1CN([C@H](C)CO)C(=O)Cc2cc(NS(=O)(=O)c3ccccc3)ccc2O[C@@H]1CN(C)S(=O)(=O)c1cccs1`, the cytotoxicity call was “inactive”.

Consider `C[C@H]1CCCCO[C@@H](CN(C)C(=O)C2CCCCC2)[C@@H](C)CN([C@@H](C)CO)C(=O)c2cc(NC(=O)C3CCCCC3)ccc2O1`, for which the cytotoxicity call is “inactive”.

For `COc1ccc(S(=O)(=O)Nc2ccc3c(c2)CC(=O)N([C@@H](C)CO)C[C@@H](C)[C@H](CN(C)Cc2ccncc2)O3)cc1`, the cytotoxicity call was “inactive”.

With `CNC(=O)C[C@@H]1CC[C@@H]2[C@H](COC[C@@H](O)CN2C(=O)Nc2ccc3c(c2)OCO3)O1`, the cytotoxicity call was “inactive”.

Regarding `C[C@@H]1CN([C@@H](C)CO)C(=O)c2cc(NS(=O)(=O)c3cccs3)ccc2O[C@@H](C)CCCCO[C@H]1CN(C)CC1CCCCC1`, the cytotoxicity call is “inactive”.

Turning to `COc1ccccc1S(=O)(=O)N[C@@H]1C=C[C@H](CC(=O)N2CCOCC2)O[C@H]1CO`, the cytotoxicity call is “inactive”.

On to `C[C@H](CO)N1C[C@H](C)[C@H](CN(C)C(=O)Nc2ccc3c(c2)OCO3)OCCCC[C@H](C)Oc2ccc(NC(=O)c3ccccc3)cc2C1=O`, for which the cytotoxicity call was “inactive”.

Regarding `CN(C)CCOc1ccc(C#N)cn1`, the cytotoxicity call was “inactive”.

For `Cn1cnc(S(=O)(=O)N[C@@H]2C=C[C@H](CC(=O)Nc3ccccc3)O[C@@H]2CO)c1`, the cytotoxicity call is “inactive”.

For the molecule `COc1ccc(CN(C)C[C@@H]2OCCCC[C@@H](C)Oc3ccc(NC(=O)Nc4ccc(OC)cc4)cc3C(=O)N([C@H](C)CO)C[C@H]2C)cc1`, the cytotoxicity call was “inactive”.

For the molecule `Nc1cnc(Cl)cn1`, the cytotoxicity call is “inactive”.

As to `CO[C@@H]1CN(C)C(=O)c2ccc(NC(=O)C3CC3)cc2OC[C@@H](C)N(C(=O)CN2CCOCC2)C[C@H]1C`, the cytotoxicity call was “inactive”.

On to `COc1ccc(CN(C)C[C@H]2OCCCC[C@@H](C)Oc3ccc(NC(=O)Nc4ccc(OC)cc4)cc3C(=O)N([C@H](C)CO)C[C@@H]2C)cc1`, for which the cytotoxicity call was “inactive”.

Another assay has as its system S. aureus RN4220. The assay can be described thus: growth inhibition call (relative growth <= 0.2). The note with it: 50 µM.
As for `C[C@H](CO)N1C[C@H](C)[C@H](CN(C)Cc2ccc(C(F)(F)F)cc2)Oc2ccc(NC(=O)Nc3ccc(C(F)(F)F)cc3)cc2CC1=O`, the growth inhibition call was “inactive”.

With `CC(C)NC(=O)Nc1cccc2c1O[C@@H](CN(C)C(=O)Nc1ccc3c(c1)OCO3)[C@@H](C)CN([C@H](C)CO)C2=O`, the growth inhibition call was “inactive”.

With `C[C@@H]1CN([C@@H](C)CO)C(=O)c2c(c3ccccc3n2C)-c2ccccc2CO[C@H]1CN(C)CC1CCCCC1`, the growth inhibition call is “inactive”.

As for `C[C@H](CO)N1C[C@H](C)[C@@H](CN(C)S(C)(=O)=O)Oc2ccc(NS(=O)(=O)c3ccccc3)cc2CC1=O`, the growth inhibition call was “inactive”.

For `COc1cccc(NC(=O)N(C)C[C@H]2Oc3ncc(C#Cc4ccncc4)cc3C(=O)N([C@H](C)CO)C[C@H]2C)c1`, the growth inhibition call was “inactive”.

Consider `NCC[C@H]1CC[C@H](NC(=O)Cc2ccncc2)[C@@H](CO)O1`, for which the growth inhibition call was “inactive”.

Regarding `Cc1noc(C)c1NC(=O)N(C)C[C@@H]1Oc2ccc(NC(=O)C3CC3)cc2C(=O)N([C@@H](C)CO)C[C@@H]1C`, the growth inhibition call is “inactive”.

As for `COc1ccc(S(=O)(=O)N2C[C@H](O)COC[C@H]3O[C@H](CC(=O)NCCN4CCCCC4)CC[C@@H]32)cc1`, the growth inhibition call is “inactive”.

As to `COc1ccc(CN(C)C[C@@H]2OCCCC[C@H](C)Oc3ccc(NC(=O)Nc4cccc5ccccc45)cc3C(=O)N([C@@H](C)CO)C[C@@H]2C)cc1`, the growth inhibition call is “inactive”.

Consider `C[C@@H]1CN([C@@H](C)CO)C(=O)c2cc(NC(=O)NC3CCCCC3)ccc2O[C@@H](C)CCCCO[C@@H]1CN(C)C(=O)Nc1ccc2c(c1)OCO2`, for which the growth inhibition call was “inactive”.

For `Cc1noc(C)c1NC(=O)Nc1ccc2c(c1)C(=O)N([C@@H](C)CO)C[C@@H](C)[C@H](CN(C)S(=O)(=O)c1cccs1)OCCCC[C@H](C)O2`, the growth inhibition call was “inactive”.

Consider `C[C@@H]1CN([C@H](C)CO)C(=O)Cc2cc(NS(C)(=O)=O)ccc2O[C@@H]1CN(C)Cc1ccc(C(=O)O)cc1`, for which the growth inhibition call was “inactive”.

Consider `C[C@@H]1CN([C@@H](C)CO)C(=O)c2c(c3ccccc3n2C)-c2ccccc2CO[C@@H]1CN(C)Cc1ccc(Cl)c(Cl)c1`, for which the growth inhibition call is “inactive”.

Consider `Cc1noc(C)c1NC(=O)Nc1ccc2c(c1)C(=O)N([C@H](C)CO)C[C@H](C)[C@H](CN(C)Cc1ccc(C(F)(F)F)cc1)OCCCC[C@@H](C)O2`, for which the growth inhibition call is “inactive”.

Regarding `C[C@@H]1CN([C@@H](C)CO)C(=O)Cc2cc(NC(=O)Cc3cn(C)c4ccccc34)ccc2O[C@@H]1CN(C)C(=O)Nc1cccc2ccccc12`, the growth inhibition call was “inactive”.

Consider `O=C(C[C@@H]1CC[C@H](NS(=O)(=O)c2ccc(F)cc2)[C@@H](CO)O1)NCc1ccc(Cl)c(Cl)c1`, for which the growth inhibition call is “inactive”.

As to `C[C@@H]1CCCCO[C@@H](CN(C)Cc2ccc(Cl)c(Cl)c2)[C@@H](C)CN([C@H](C)CO)C(=O)c2cc(NC(=O)Nc3ccc(F)cc3)ccc2O1`, the growth inhibition call is “inactive”.

With `COc1ccccc1C#Cc1cnc2c(c1)C(=O)N([C@H](C)CO)C[C@H](C)[C@@H](CN(C)C(=O)CC1CC1)O2`, the growth inhibition call was “inactive”.

With `Cc1ccc(S(=O)(=O)Nc2cccc3c2O[C@@H](CN(C)S(=O)(=O)c2ccccc2)[C@@H](C)CN([C@H](C)CO)C3=O)cc1`, the growth inhibition call was “inactive”.

As to `C[C@@H]1CN([C@H](C)CO)C(=O)c2cc(-c3cccnc3)cnc2O[C@H]1CN(C)Cc1ccc(Oc2ccccc2)cc1`, the growth inhibition call is “inactive”.

Take `COc1ccc(CN(C)C[C@@H]2OCCCC[C@@H](C)Oc3ccc(NC(=O)c4ccccc4)cc3C(=O)N([C@H](C)CO)C[C@@H]2C)cc1`: the growth inhibition call was “inactive”.

In the case of `C[C@H]1CN([C@@H](C)CO)C(=O)c2cc(NS(C)(=O)=O)ccc2O[C@H]1CN(C)Cc1ccc(C(=O)O)cc1`, the growth inhibition call was “inactive”.

On to `Cc1noc(C)c1NC(=O)N(C)C[C@@H]1OCCCC[C@@H](C)Oc2ccc(NC(=O)Nc3ccccc3)cc2C(=O)N([C@@H](C)CO)C[C@@H]1C`, for which the growth inhibition call is “inactive”.

As to `COc1ccc(NC(=O)Nc2cccc3c2O[C@H](CN(C)Cc2ccc(C(F)(F)F)cc2)[C@@H](C)CN([C@H](C)CO)C3=O)cc1`, the growth inhibition call is “inactive”.

For the molecule `COc1ccc(/C=C/CN(C/C=C/c2ccc(OC)cc2)CCCCNS(=O)(=O)c2cccc3cnccc23)cc1`, the growth inhibition call was “inactive”.

With `C[C@@H]1CN([C@@H](C)CO)C(=O)c2cc(NC(=O)Nc3ccccc3)ccc2O[C@H]1CN(C)C(=O)Nc1cccc2ccccc12`, the growth inhibition call was “inactive”.

For the molecule `C[C@H](CO)N1C[C@H](C)[C@H](CN(C)C(=O)Nc2ccc3c(c2)OCO3)Oc2ncc(C#CC(C)(C)O)cc2C1=O`, the growth inhibition call is “inactive”.

For `C[C@@H]1CN([C@H](C)CO)C(=O)Cc2cc(NS(=O)(=O)c3ccccc3)ccc2O[C@@H]1CN(C)S(=O)(=O)c1cccs1`, the growth inhibition call is “inactive”.

Regarding `C[C@H]1CCCCO[C@@H](CN(C)C(=O)C2CCCCC2)[C@@H](C)CN([C@@H](C)CO)C(=O)c2cc(NC(=O)C3CCCCC3)ccc2O1`, the growth inhibition call was “inactive”.

For the molecule `COc1ccc(S(=O)(=O)Nc2ccc3c(c2)CC(=O)N([C@@H](C)CO)C[C@@H](C)[C@H](CN(C)Cc2ccncc2)O3)cc1`, the growth inhibition call is “inactive”.

In the case of `CNC(=O)C[C@@H]1CC[C@@H]2[C@H](COC[C@@H](O)CN2C(=O)Nc2ccc3c(c2)OCO3)O1`, the growth inhibition call was “inactive”.

On to `C[C@@H]1CN([C@@H](C)CO)C(=O)c2cc(NS(=O)(=O)c3cccs3)ccc2O[C@@H](C)CCCCO[C@H]1CN(C)CC1CCCCC1`, for which the growth inhibition call was “inactive”.

On to `COc1ccccc1S(=O)(=O)N[C@@H]1C=C[C@H](CC(=O)N2CCOCC2)O[C@H]1CO`, for which the growth inhibition call is “inactive”.

The values are drawn from the antibiotic and cytotoxicity screens of Wong et al. (2023).
